Results from PubChem BioAssay AID1768 (National Center for Advancing Translational Sciences (NCATS), 2009).
The campaign covered roughly 270,000 compounds. About 620 (0.23%) were called active. The inconclusive results got no clear call from the source; some entries with a clear call stand among them for comparison. Calls come from the whole dose curve; as a rule, active = well fitted inhibition curve with a large enough effect in the polarisation, with a control signal flat (not every such curve was filed as active); inconclusive = small, poorly fitted or top-dose-only effect, or effect the other way, or a change in a side signal; inactive = no such curve, though single readings can be large or run the other way; the % refers to the polarisation. Potencies beside an inconclusive call are fits to weak or partial responses and may not hold up. A note “side channel” means that the fit belongs to a control or component signal, not to the main read-out.

target: Menin (Homo sapiens) (UniProt O00255); assay: qHTS Assay for Inhibitors Targeting the Menin-MLL Interaction in MLL Related Leukemias: Competition With Texas Red Labeled MLL-derived Mutant Peptide; conditions: fluorescence polarization; series mostly up to 61.6 µM
Chain of UniProt O00255 (O00255 whole entry, looked up): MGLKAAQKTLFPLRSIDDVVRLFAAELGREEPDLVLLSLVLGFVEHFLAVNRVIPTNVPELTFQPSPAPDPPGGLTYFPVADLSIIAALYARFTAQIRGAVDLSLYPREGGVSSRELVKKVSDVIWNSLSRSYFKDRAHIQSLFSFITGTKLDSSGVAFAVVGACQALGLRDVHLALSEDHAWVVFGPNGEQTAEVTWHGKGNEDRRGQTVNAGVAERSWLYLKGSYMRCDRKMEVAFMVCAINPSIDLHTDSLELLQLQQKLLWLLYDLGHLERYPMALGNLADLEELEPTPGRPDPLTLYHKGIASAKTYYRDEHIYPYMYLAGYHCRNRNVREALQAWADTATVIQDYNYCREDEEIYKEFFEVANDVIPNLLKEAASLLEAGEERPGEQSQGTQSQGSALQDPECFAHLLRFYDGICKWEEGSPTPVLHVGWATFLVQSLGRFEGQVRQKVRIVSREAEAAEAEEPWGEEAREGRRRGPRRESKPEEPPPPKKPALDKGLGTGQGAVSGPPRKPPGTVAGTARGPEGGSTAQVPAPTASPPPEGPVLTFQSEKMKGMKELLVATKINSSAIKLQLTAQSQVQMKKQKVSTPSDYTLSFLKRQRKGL
Potency is the fitted concentration of half-maximal effect; tags give direction and shape of the fitted curve or compound fluorescence and quenching.

Question: Which Potency does the source give for `O=C(Nc1ccc(Cl)cn1)Nc1cccs1` here?
Answer: inconclusive: 25.1 µM [quencher, side channel, single point]

Question: `CC(=O)C(C(c1ccccc1)c1c[nH]c2ccccc12)[N+](=O)[O-]` (stereo unspecified) was tested. Which Potency did it give?
Answer: inconclusive: 28.2 µM [quencher, side channel, single point]

Question: How did the Potency turn out when `CC1CCCN(C(=O)C(C)Sc2nc(-c3ccccc3)cc(C(F)(F)F)n2)C1` (stereo unspecified) was run?
Answer: inconclusive: 12.6 µM [fluorescent, side channel, partial curve]

Question: With `CN1CCc2c(sc3c2C(=O)NC(c2cccs2)N3)C1` (stereo unspecified) as the compound, how does the Potency read?
Answer: active: 28.2 µM

Question: How did the Potency turn out when `O=C1CCCN1c1ccc(S(=O)(=O)N2CCN(c3ccccn3)CC2)cc1` was run?
Answer: inconclusive: 39.8 µM [inhibitor, single point]

Question: With `Cc1ccc(NC(=S)NCCO)c(C)c1` as the compound, how does the Potency read?
Answer: inconclusive: 8.91 µM [inhibitor, partial curve]

Question: `CC(C)C(NC(=O)c1c(F)cccc1F)C(=O)NCCc1ccc(S(N)(=O)=O)cc1` (stereo unspecified) was tested. Which Potency did it give?
Answer: inactive

Question: Which Potency does the source give for `CC(=O)Nc1ccc(S(=O)(=O)N2CCC(C(=O)c3ccc(Cl)cc3)CC2)cc1` here?
Answer: inconclusive: 25.1 µM [quencher, side channel, partial curve]

Question: `CCN(CC)c1ccc(/C=C/c2cccc[n+]2C)c(OC)c1` was tested. Which Potency did it give?
Answer: inconclusive: 20 µM [fluorescent, side channel, partial curve]

Question: For `CN(CCO)c1cc(NCCCN2CCC(Cc3ccccc3)CC2)c2nonc2c1[N+](=O)[O-]`, which Potency is on record?
Answer: inconclusive: 25.1 µM [inhibitor, partial curve]

Question: With `Cc1ccc(Nc2nc(CSc3nnnn3-c3ccccc3)cc(=O)[nH]2)cc1` as the compound, how does the Potency read?
Answer: inconclusive: 20 µM [quencher, side channel, single point]

Question: How did the Potency turn out when `COc1cccc(C=Nc2cc(C)on2)c1O` was run?
Answer: inconclusive: 0.631 µM [inhibitor, full curve, poor fit]

Question: How did the Potency turn out when `CCc1ccccc1NC(=O)CSc1ccsc1[N+](=O)[O-]` was run?
Answer: inconclusive: 25.1 µM [quencher, side channel, partial curve]

Question: `COc1ccc(Cl)cc1-n1c(=S)sc2c(=O)[nH]c(SCC(=O)C(C)(C)C)nc21` was tested. Which Potency did it give?
Answer: inconclusive: 14.1 µM [quencher, partial curve]

Question: How did the Potency turn out when `O=C(CC1Nc2cccc3cccc(c23)NC1=O)Nc1ccc(F)cc1` (stereo unspecified) was run?
Answer: inconclusive: 17.8 µM [quencher, side channel, partial curve]

Question: How did the Potency turn out when `CC(Cc1cccs1)NC(=O)Nc1ccc([N+](=O)[O-])cc1` (stereo unspecified) was run?
Answer: inconclusive: 22.4 µM [quencher, side channel, partial curve]

Question: `O=C(NCc1ccc(Cl)cc1)NCc1ccc(Cl)cc1` was tested. Which Potency did it give?
Answer: inconclusive: 3.98 µM [inhibitor, full curve]

Question: For `O=C(COC(=O)c1cc(F)cc(F)c1)NCCCc1ccccc1`, which Potency is on record?
Answer: inconclusive: 25.1 µM [inhibitor, single point]

Question: For `O=C(CCS(=O)(=O)Cc1ccccc1)Nc1ncc([N+](=O)[O-])s1`, which Potency is on record?
Answer: inconclusive: 22.4 µM [quencher, side channel, single point]

Question: For `NC(=O)c1cc(Br)cc2c3c([nH]c12)CCCC3`, which Potency is on record?
Answer: inconclusive: 14.1 µM [quencher, side channel, partial curve]

Question: Which Potency does the source give for `COc1ccc(-c2[nH]c(-c3ccc4c(c3)OCO4)nc2-c2ccccc2)cc1` here?
Answer: inconclusive: 11.2 µM [quencher, side channel, partial curve]

Question: With `O=C(O)c1ccc(S(=O)(=O)N2CCC(Cc3ccccc3)CC2)cc1` as the compound, how does the Potency read?
Answer: inconclusive: 20 µM [quencher, side channel, single point]

Question: With `COC(=O)c1ccc(C)c(NC(=O)CSc2sc3c(O)cc(=O)[nH]c3c2C#N)c1` as the compound, how does the Potency read?
Answer: inconclusive: 25.1 µM [quencher, side channel, partial curve]

Question: Which Potency does the source give for `COc1ccc(N(CC(=O)NC2CCCC2)C(=O)Cn2nnc(-c3ccc(C)cc3)n2)cc1OC` here?
Answer: inconclusive: 39.8 µM [inhibitor, single point]

Question: `O=C(N/N=C1\CC2CC=CC12)c1ccc(Br)cc1` (stereo unspecified) was tested. Which Potency did it give?
Answer: inconclusive: 39.8 µM [inhibitor, partial curve]

Question: How did the Potency turn out when `O=C1CCCN2N=C(SCC(=O)Nc3nc4ccccc4s3)SC2=N1` was run?
Answer: inconclusive: 31.6 µM [inhibitor, single point]

Question: `CSCc1ccc(C(=O)Nc2ccc(C(N)=O)cc2)cc1` was tested. Which Potency did it give?
Answer: inconclusive: 39.8 µM [fluorescent, side channel, single point]

Question: With `COc1ccc2c(C#N)c3ccccn3c2c1` as the compound, how does the Potency read?
Answer: inconclusive: 25.1 µM [quencher, side channel, single point]

Question: For `CNc1nc(-c2c[nH]c3ccccc23)cs1`, which Potency is on record?
Answer: inconclusive: 39.8 µM [fluorescent, side channel, single point]

Question: Which Potency does the source give for `Cc1ccc(S(=O)(=O)N(Cc2ccccc2)c2ccccc2C(=O)Nc2ccccc2C(=O)NCc2ccco2)cc1` here?
Answer: inconclusive: 35.5 µM [inhibitor, single point]

Question: `CC1(OC(=O)CCc2ccccc2)C(=O)C=C2C=C(c3ccc(C#N)cc3)OC=C2C1=O` (stereo unspecified) was tested. Which Potency did it give?
Answer: inconclusive: 31.6 µM [quencher, side channel, single point]

Question: `CCCCCCN1C=CC(=C/C=C(\C#N)C(=O)OCC)C=C1` was tested. Which Potency did it give?
Answer: inconclusive: 31.6 µM [inhibitor, single point]

Question: Which Potency does the source give for `O=C(CCc1cn(Cc2ccc(F)cc2)c2ccccc12)N1CCOCC1` here?
Answer: inconclusive: 15.8 µM [fluorescent, side channel, partial curve]

Question: Which Potency does the source give for `O=C(NCCN1CCOCC1)c1cc2sccc2n1Cc1ccc(Cl)cc1` here?
Answer: inconclusive: 10 µM [inhibitor, partial curve]

Question: With `C#CCOCCOCCOCCNc1nc(N2CCN(C(=O)C(Cc3ccc(O)cc3)n3cc(C(N)C(C)CC)nn3)CC2)nc(N2CCN(C(=O)C(Cc3ccc(O)cc3)n3cc(C(N)C(C)CC)nn3)CC2)n1` (stereo unspecified) as the compound, how does the Potency read?
Answer: inconclusive: 14.1 µM [fluorescent, side channel, partial curve]

Question: `CC(=O)Oc1cccc(N2C(=O)CC(Nc3ccc(N4CCOCC4)cc3)C2=O)c1` (stereo unspecified) was tested. Which Potency did it give?
Answer: inconclusive: 31.6 µM [quencher, side channel, single point]

Question: `O=C(CN1CCN(c2cccc(Cl)c2)CC1)NC1CCCc2ccccc21` (stereo unspecified) was tested. Which Potency did it give?
Answer: inconclusive: 5.62 µM [fluorescent, side channel, partial curve]

Question: How did the Potency turn out when `COc1ccccc1CNC(=O)CSc1ccsc1[N+](=O)[O-]` was run?
Answer: inconclusive: 39.8 µM [quencher, side channel, single point]

Question: Which Potency does the source give for `COC(=O)C1Sc2[nH]c(=O)sc2C2c3ccccc3OC(=O)C12` (stereo unspecified) here?
Answer: inactive

Question: How did the Potency turn out when `Oc1ccc(-c2c(-c3ccsc3)sc3ccccc23)cc1` was run?
Answer: inconclusive: 25.1 µM [quencher, side channel, partial curve]

Question: With `COc1ccc(C(=O)Nc2ccc3ccccc3c2)c(OC)c1` as the compound, how does the Potency read?
Answer: inconclusive: 17.8 µM [quencher, side channel, partial curve]

Question: `COc1cc(NC(=O)O[C@@H]2C(=O)c3cc(Br)ccc3O[C@H]2c2ccc3c(c2)OCO3)cc(OC)c1OC` was tested. Which Potency did it give?
Answer: inactive

Question: `CCOc1ccc(-c2ccc(SCC(=O)Nc3nnc(CC)s3)nn2)cc1` was tested. Which Potency did it give?
Answer: inconclusive: 28.2 µM [fluorescent, side channel, partial curve]

Question: With `O=C(c1ccccc1Oc1ccccc1)N1CCN(c2ccccc2)CC1` as the compound, how does the Potency read?
Answer: inconclusive: 3.16 µM [fluorescent, side channel, partial curve]

Question: With `CCCOc1ccc(C2NC(=S)NC(C)=C2C(=O)c2ccccc2)cc1OC` (stereo unspecified) as the compound, how does the Potency read?
Answer: inactive

Question: How did the Potency turn out when `Cc1cc(N)c2ccccc2[n+]1CCCCCCCCCCCCCC[n+]1c(C)cc(N)c2ccccc21` was run?
Answer: inconclusive: 2 µM [fluorescent, side channel, full curve]

Question: With `Cc1ccc(S(=O)(=O)Nc2ccccc2C(=O)OC(C)C(=O)Nc2ccc3ccccc3c2)cc1[N+](=O)[O-]` (stereo unspecified) as the compound, how does the Potency read?
Answer: inconclusive: 3.55 µM [quencher, side channel, partial curve]

Question: `Cc1ccccc1C(=O)NC(=S)Nc1sc2c(c1C#N)CCCC2` was tested. Which Potency did it give?
Answer: inconclusive: 39.8 µM [inhibitor, single point]

Question: How did the Potency turn out when `CC(C)c1cc(C(N)=O)c(NC(=O)c2cccc(COc3ccc(Cl)cc3)c2)s1` was run?
Answer: inconclusive: 8.91 µM [quencher, side channel, full curve, poor fit]

Question: With `CCCCN(C)S(=O)(=O)c1ccc(C(=O)Nc2nnc(-c3ccco3)o2)cc1` as the compound, how does the Potency read?
Answer: inconclusive: 31.6 µM [quencher, side channel, single point]

Question: `COc1ccc(C2(C(=O)NC(C)C)CCCC2)cc1OC` was tested. Which Potency did it give?
Answer: inconclusive: 7.08 µM [inhibitor, single point]

Question: `COc1ccccc1CCN1CCCC(CN(C)C(=O)c2ccco2)C1` (stereo unspecified) was tested. Which Potency did it give?
Answer: inconclusive: 39.8 µM [inhibitor, single point]

Question: Which Potency does the source give for `O=C(O)/C(=C\c1ccc(-c2ccccc2[N+](=O)[O-])o1)c1ccccc1` here?
Answer: inconclusive: 39.8 µM [quencher, side channel, single point]

Question: Which Potency does the source give for `N#Cc1c(N)nc(SCC(=O)NCCc2ccccc2)c(C#N)c1-c1cccs1` here?
Answer: inconclusive: 39.8 µM [fluorescent, single point]

Question: How did the Potency turn out when `O=C(c1ccc2c(c1)[nH]c(=S)n1c3ccccc3nc21)N1CCN(c2ncccn2)CC1` was run?
Answer: inconclusive: 0.708 µM [inhibitor, full curve]

Question: With `CSc1nc2ccccc2n1C(=O)NC1CCCCC1` as the compound, how does the Potency read?
Answer: inconclusive: 4.47 µM [inhibitor, single point]
